Source: the supplement of paper PMC6206098
± gives the uncertainty stated by the source. The sequences are guide strands of siRNAs; only the seed at positions 2 to 7 varies.

How the values were obtained:
3LL = assay: cell viability relative to siNT1 control; higher = less toxic; conditions: concentration: 10 nM; 96 h; Mus musculus;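 further: Luminescence-based viability of cells reverse transfected in 384-well plates with lipid-complexed siRNAs built on a non-toxic 19mer backbone whose passenger strand carries 2′-O-methyl groups at positions 1 and 2, triplicates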
H460 = assay: cell viability relative to lipid-only control; HeyA8 human ovarian and H460 human lung cancer; M565 mouse liver and 3LL mouse lung cancer; siNT1 is a non-toxic control siRNA; higher = less toxic; conditions: concentration: 10 nM; 96 h; Homo sapiens
HeyA8 = assay: as above; conditions: concentration: 10 nM; 96 h; Homo sapiens
M565 = assay: as above; conditions: concentration: 10 nM; 96 h; Mus musculus
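Wherever cell viability relative to lipid-only control is given: reverse lipid transfection in 384-well plates, in triplicate, of duplexes on a non-toxic 19mer backbone with passenger strand 2′-O-methylated at positions 1 and 2, luminescence viability read-out.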

Q: How did the cell viability (3LL) turn out when UGUACAGACAUGUAAACCAAA was run?
A: 88.5 ± 5.9%

Q: And the cell viability (H460)?
A: 82.7 ± 12%

Q: What about the cell viability (HeyA8) of the same sequence?
A: 78.6 ± 4.7%

Q: What about the cell viability (M565) of the same sequence?
A: 52.5 ± 12%

Q: How did the cell viability (3LL) turn out when UGUACAUACAUGUAAACCAAA was run?
A: 81.31 ± 0.23%

Q: What about the cell viability (H460) of the same sequence?
A: 69.1 ± 20%

Q: And the cell viability (HeyA8)?
A: 76.6 ± 10%

Q: What about the cell viability (M565) of the same sequence?
A: 90.6 ± 24%

Q: What does the source list for UGUACCAACAUGUAAACCAAA?
A: cell viability (3LL): 68.4 ± 5.5%; cell viability (H460): 77 ± 6.4%; cell viability (HeyA8): 89.1 ± 2.5%; cell viability (M565): 69.2 ± 9.8%

Q: With UGUACCCACAUGUAAACCAAA as the sequence, how does the cell viability (3LL) read?
A: 12.1 ± 3.8%

Q: And the cell viability (H460)?
A: 24.7 ± 2.2%

Q: What about the cell viability (HeyA8) of the same sequence?
A: 21.8 ± 2.2%

Q: And the cell viability (M565)?
A: 7.81 ± 1.8%

Q: UGUACCGACAUGUAAACCAAA was tested. Which cell viability (3LL) did it give?
A: 73.7 ± 13%

Q: What about the cell viability (H460) of the same sequence?
A: 61.4 ± 3.1%

Q: What about the cell viability (HeyA8) of the same sequence?
A: 79.7 ± 3.1%

Q: And the cell viability (M565)?
A: 37.6 ± 13%

Q: With UGUACCUACAUGUAAACCAAA as the sequence, how does the cell viability (3LL) read?
A: 55.7 ± 9.5%

Q: And the cell viability (H460)?
A: 54.3 ± 7.7%

Q: What about the cell viability (HeyA8) of the same sequence?
A: 55.6 ± 3.3%

Q: What about the cell viability (M565) of the same sequence?
A: 16.7 ± 4.4%

Q: How did the cell viability (3LL) turn out when UGUACGAACAUGUAAACCAAA was run?
A: 97.8 ± 8.1%

Q: What about the cell viability (H460) of the same sequence?
A: 112 ± 10%

Q: And the cell viability (HeyA8)?
A: 97.1 ± 7.2%

Q: And the cell viability (M565)?
A: 81.4 ± 10%

Q: For UGUACGCACAUGUAAACCAAA, which cell viability (3LL) is on record?
A: 80.5 ± 1.8%

Q: What about the cell viability (H460) of the same sequence?
A: 66 ± 6.1%

Q: And the cell viability (HeyA8)?
A: 27.3 ± 25%

Q: And the cell viability (M565)?
A: 61 ± 3.3%

Q: Which cell viability (3LL) does the source give for UGUACGGACAUGUAAACCAAA here?
A: 62.6 ± 11%

Q: What about the cell viability (H460) of the same sequence?
A: 57.9 ± 5.2%

Q: What about the cell viability (HeyA8) of the same sequence?
A: 70.1 ± 10%

Q: What about the cell viability (M565) of the same sequence?
A: 50.8 ± 3.4%

Q: With UGUACGUACAUGUAAACCAAA as the sequence, how does the cell viability (3LL) read?
A: 95.3 ± 6%

Q: And the cell viability (H460)?
A: 84.6 ± 9.1%

Q: And the cell viability (HeyA8)?
A: 99.6 ± 5.4%

Q: What about the cell viability (M565) of the same sequence?
A: 70.3 ± 6.2%

Q: Which cell viability (3LL) does the source give for UGUACUAACAUGUAAACCAAA here?
A: 92.2 ± 5.4%

Q: And the cell viability (H460)?
A: 93.5 ± 5%

Q: What about the cell viability (HeyA8) of the same sequence?
A: 85.1 ± 5.3%

Q: And the cell viability (M565)?
A: 71.7 ± 6.2%

Q: What does the source list for UGUACUCACAUGUAAACCAAA?
A: cell viability (3LL): 55.1 ± 22%; cell viability (H460): 87.9 ± 14%; cell viability (HeyA8): 27.8 ± 10%; cell viability (M565): 44.4 ± 7.4%

Q: With UGUACUGACAUGUAAACCAAA as the sequence, how does the cell viability (3LL) read?
A: 90.2 ± 6.7%

Q: And the cell viability (H460)?
A: 110 ± 5.8%

Q: And the cell viability (HeyA8)?
A: 92.6 ± 5.7%

Q: What about the cell viability (M565) of the same sequence?
A: 51.8 ± 8.6%

Q: What does the source list for UGUACUUACAUGUAAACCAAA?
A: cell viability (3LL): 71.3 ± 12%; cell viability (H460): 69.5 ± 6.6%; cell viability (HeyA8): 64.8 ± 4.6%; cell viability (M565): 78.8 ± 8.6%

Q: For UGUAGAAACAUGUAAACCAAA, which cell viability (3LL) is on record?
A: 89.2 ± 9.9%

Q: And the cell viability (H460)?
A: 62.3 ± 2.8%

Q: And the cell viability (HeyA8)?
A: 87.3 ± 9.5%

Q: What about the cell viability (M565) of the same sequence?
A: 60.9 ± 9%

Q: Which cell viability (3LL) does the source give for UGUAGACACAUGUAAACCAAA here?
A: 60.4 ± 16%

Q: And the cell viability (H460)?
A: 50.5 ± 6.9%

Q: And the cell viability (HeyA8)?
A: 18.4 ± 3%

Q: What about the cell viability (M565) of the same sequence?
A: 23 ± 7.2%

Q: Which results are given for UGUAGAGACAUGUAAACCAAA?
A: cell viability (3LL): 81.5 ± 1.4%; cell viability (H460): 62.4 ± 12%; cell viability (HeyA8): 72.7 ± 11%; cell viability (M565): 41.7 ± 8.4%

Q: With UGUAGAUACAUGUAAACCAAA as the sequence, how does the cell viability (3LL) read?
A: 46.3 ± 21%

Q: And the cell viability (H460)?
A: 83.2 ± 8.3%

Q: What about the cell viability (HeyA8) of the same sequence?
A: 28 ± 7.6%

Q: And the cell viability (M565)?
A: 17.1 ± 3.6%

Q: Which results are given for UGUAGCAACAUGUAAACCAAA?
A: cell viability (3LL): 67.9 ± 5.3%; cell viability (H460): 61.3 ± 8.9%; cell viability (HeyA8): 70.3 ± 9.7%; cell viability (M565): 28.4 ± 2.5%

Q: UGUAGCCACAUGUAAACCAAA was tested. Which cell viability (3LL) did it give?
A: 3.74 ± 1.6%

Q: What about the cell viability (H460) of the same sequence?
A: 18.6 ± 3.1%

Q: What about the cell viability (HeyA8) of the same sequence?
A: 20.9 ± 2.8%

Q: What about the cell viability (M565) of the same sequence?
A: 7.36 ± 2.2%

Q: For UGUAGCGACAUGUAAACCAAA, which cell viability (3LL) is on record?
A: 63.5 ± 16%

Q: What about the cell viability (H460) of the same sequence?
A: 78.3 ± 19%

Q: What about the cell viability (HeyA8) of the same sequence?
A: 62.3 ± 10%

Q: What about the cell viability (M565) of the same sequence?
A: 44 ± 11%

Q: For UGUAGCUACAUGUAAACCAAA, which cell viability (3LL) is on record?
A: 8.99 ± 4%

Q: What about the cell viability (H460) of the same sequence?
A: 20.7 ± 2.4%

Q: What about the cell viability (HeyA8) of the same sequence?
A: 8.44 ± 0.62%

Q: And the cell viability (M565)?
A: 7.51 ± 1.2%

Q: How did the cell viability (3LL) turn out when UGUAGGAACAUGUAAACCAAA was run?
A: 82.3 ± 9%

Q: What about the cell viability (H460) of the same sequence?
A: 59.9 ± 8%

Q: And the cell viability (HeyA8)?
A: 24.6 ± 5.9%

Q: What about the cell viability (M565) of the same sequence?
A: 32.9 ± 2.1%

Q: UGUAGGCACAUGUAAACCAAA was tested. Which cell viability (3LL) did it give?
A: 8.97 ± 5.7%

Q: What about the cell viability (H460) of the same sequence?
A: 35.9 ± 0.88%

Q: What about the cell viability (HeyA8) of the same sequence?
A: 3.7 ± 0.61%

Q: What about the cell viability (M565) of the same sequence?
A: 5.46 ± 0.95%

Q: Which results are given for UGUAGGGACAUGUAAACCAAA?
A: cell viability (3LL): 36.9 ± 7.4%; cell viability (H460): 32.9 ± 7.8%; cell viability (HeyA8): 8.08 ± 1%; cell viability (M565): 34 ± 6.5%

Q: What does the source list for UGUAGGUACAUGUAAACCAAA?
A: cell viability (3LL): 14.3 ± 8.3%; cell viability (H460): 33.7 ± 3.7%; cell viability (HeyA8): 4.29 ± 0.18%; cell viability (M565): 5.44 ± 1.5%

Q: Which results are given for UGUAGUAACAUGUAAACCAAA?
A: cell viability (3LL): 88.5 ± 2.3%; cell viability (H460): 78 ± 4.5%; cell viability (HeyA8): 11.7 ± 2.8%; cell viability (M565): 61.1 ± 5.3%

Q: Which results are given for UGUAGUCACAUGUAAACCAAA?
A: cell viability (3LL): 32.4 ± 11%; cell viability (H460): 21.4 ± 3.5%; cell viability (HeyA8): 2.82 ± 0.24%; cell viability (M565): 12.8 ± 0.14%

Q: Which results are given for UGUAGUGACAUGUAAACCAAA?
A: cell viability (3LL): 94.2 ± 6.3%; cell viability (H460): 68.1 ± 11%; cell viability (HeyA8): 11.4 ± 3.4%; cell viability (M565): 78.5 ± 4.3%

Q: With UGUAGUUACAUGUAAACCAAA as the sequence, how does the cell viability (3LL) read?
A: 68.4 ± 8.4%

Q: And the cell viability (H460)?
A: 43.9 ± 5.7%

Q: And the cell viability (HeyA8)?
A: 37.9 ± 2.3%

Q: What about the cell viability (M565) of the same sequence?
A: 36.4 ± 5.1%
